Data reported in the supplement of paper PMC4166925.
± gives the standard deviation of the averaged measurements. In all, about 33,000 sequences were measured (“E-score (dimensionless, -0.5 to 0.5)”: median about -0.046, highest 2% from about 0.36 on). The list shows a part of the results.

tested on: T1, SpTbr T-box DNA-binding domain (GST fusion); assay: PBM E-score of 8-mer (E-score (dimensionless, -0.5 to 0.5)); Tbr is Tbrain of the sea star Patiria miniata (Pm) or the sea urchin Strongylocentrotus purpuratus (Sp); higher = stronger binding preference; most listed sequences are background and not binding sites; conditions: the construct has about 5 more residues each side
T1 sequence: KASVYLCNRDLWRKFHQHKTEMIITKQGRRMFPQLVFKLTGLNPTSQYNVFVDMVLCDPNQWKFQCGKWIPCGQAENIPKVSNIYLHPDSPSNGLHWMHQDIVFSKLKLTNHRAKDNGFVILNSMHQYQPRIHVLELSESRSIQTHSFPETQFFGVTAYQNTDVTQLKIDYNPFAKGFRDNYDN
Method: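 Universal protein-binding microarray (Agilent AMADID 016060, 60-bp probes with a 35-bp variable region) incubated with 200 nM GST-fused Strongylocentrotus purpuratus Tbr T-box DNA-binding domain (residues 362-554) in PBS pH 7.5. Scored for every ungapped 8-mer (given with its reverse complement) as E-score (range -0.5 to 0.5; >0.45 counts as bound) and Z-score of median probe intensity. Two replicate arrays (datasets 1 and 2).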
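Also: protein at 200 nM in PBS on universal double-stranded arrays.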

| Sequence | PBM E-score of 8-mer |
| --- | --- |
| GTAATGCA | -0.234 ± 0.038 |
| CGCGTTTC | 0.0215 ± 0.06 |
| AGCGGTGC | -0.00638 ± 0.018 |
| GATATTAC | -0.119 ± 0.007 |
| CATGCAGA | -0.219 ± 0.036 |
| AATCGTAT | -0.121 ± 0.03 |
| CTAGGCTA | 0.0202 ± 0.051 |
| AGCGGCAC | 0.159 ± 0.065 |
| AGGTGTAG | 0.3922 ± 0.0034 |
| AAATATTC | -0.244 ± 0.0027 |
| GGGTAACC | -0.134 ± 0.014 |
| CGAGTAAA | 0.00249 ± 0.012 |
| GTCTGGGA | -0.214 ± 0.06 |
| AAATAGAA | -0.277 ± 0.067 |
| CCCTTGGC | 0.0774 ± 0.088 |
| CGATTTAG | -0.0612 ± 0.0077 |
| GGCACTAC | -0.0662 ± 0.00069 |
| AAGTCGGT | 0.0854 ± 0.011 |
| GCGCTAAA | 0.338 ± 0.014 |
| GTTCGTTA | 0.00848 ± 0.029 |
| CGGTTGAG | -0.0815 ± 0.017 |
| GAGTCGCC | 0.00444 ± 0.029 |
| ACTATTCC | -0.116 ± 0.015 |
| ATGTGCGG | 0.0899 ± 0.0075 |
| GGTACTGA | -0.184 ± 0.048 |

| Sequence | PBM E-score of 8-mer |
| --- | --- |
| GGCCGAGA | 0.045 ± 0.022 |
| TGCTGGAA | -0.174 ± 0.047 |
| ACCTTGCC | 0.0093 ± 0.0029 |
| ACGCCAAC | 0.144 ± 0.021 |
| GGCGTTGA | 0.344 ± 0.013 |
| CAACACAG | 0.237 ± 0.047 |
| GTTACTGA | 0.00366 ± 0.032 |
| AGAACACG | 0.157 ± 0.045 |
| AACGCGTA | 0.182 ± 0.057 |
| AGTTTGTG | 0.0608 ± 0.0061 |
| CTCATGAA | -0.133 ± 0.02 |
| ATAAACAA | -0.0981 ± 0.098 |
| CAGGGGCA | -0.308 ± 0.062 |
| CTCCTTCA | -0.0611 ± 0.0027 |
| AGGGATAT | -0.283 ± 0.013 |
| GTCAAACA | 0.0138 ± 0.011 |
| CCCATGGC | -0.0153 ± 0.051 |
| AATTTGCA | 0.143 ± 0.086 |
| GCGTAACA | 0.11 ± 0.0016 |
| CCGTATCC | -0.137 ± 0.066 |
| CATGTGCC | 0.163 ± 0.027 |
| ATCCACGG | -0.19 ± 0.082 |
| GTCCCGTA | -0.2504 ± 0.00072 |
| CACACTAC | 0.33 ± 0.027 |
| AATTTAAC | 0.0224 ± 0.15 |

| Sequence | PBM E-score of 8-mer |
| --- | --- |
| GTAGCATA | -0.143 ± 0.069 |
| TTAAAAAA | -0.215 ± 0.056 |
| CGAGCGAG | 0.0516 ± 0.075 |
| GTAAGGAA | -0.00673 ± 0.089 |
| ACCCCGTG | 0.191 ± 0.028 |
| CGTAATAC | -0.211 ± 0.081 |
| CCGCTGGA | -0.0646 ± 0.073 |
| ATTATTCG | -0.0594 ± 0.0069 |
| ACCTGCAT | 0.0429 ± 0.011 |
| CTAATAAG | -0.0157 ± 0.0038 |
| ATCCTCAT | -0.251 ± 0.0058 |
| AGGCAGTC | -0.189 ± 0.051 |
| GGTCCGCA | 0.0726 ± 0.011 |
| CCTTCTCC | -0.101 ± 0.032 |
| CCAACGTC | -0.115 ± 0.02 |
| CTCAATTA | -0.0839 ± 0.0076 |
| CGACACGA | 0.174 ± 0.041 |
| AACGAAGC | -0.113 ± 0.068 |
| AAACCTGT | 0.0331 ± 0.12 |
| ACTAGCAT | 0.1 ± 0.046 |
| ACATATTC | 0.203 ± 0.049 |
| CAGACGGA | -0.0782 ± 0.055 |
| CGCATACC | -0.116 ± 0.071 |
| AAGGCATG | -0.132 ± 0.037 |
| AGGCGTAA | 0.255 ± 0.051 |

| Sequence | PBM E-score of 8-mer |
| --- | --- |
| AAAGTTTC | -0.076 ± 0.025 |
| GAGTCGCA | 0.25 ± 0.013 |
| CAGGTGAG | 0.399 ± 0.0058 |
| GGCAATGA | -0.0971 ± 0.061 |
| CACGCTGG | 0.0357 ± 0.05 |
| CAAGTACA | 0.0305 ± 0.045 |
| CTGACTTC | -0.186 ± 0.11 |
| GGCCCCAC | 0.00311 ± 0.024 |
| AGCAACCG | -0.0904 ± 0.042 |
| CATCAGGG | 0.0143 ± 0.018 |
| AACGGGCT | -0.188 ± 0.022 |
| GGTGATTA | 0.1427 ± 0.0012 |
| ACCCTCCA | 0.123 ± 0.024 |
| AATCGGCC | -0.2327 ± 0.00095 |
| CCGATCCA | -0.143 ± 0.036 |
| AACTTGCG | 0.198 ± 0.0091 |
| ATCAGACA | -0.13 ± 0.0058 |
| CTAGTTAC | -0.0796 ± 0.0019 |
| AAGGATTA | -0.152 ± 0.047 |
| GTACATTA | -0.263 ± 0.006 |
| AGGTTGAC | 0.2511 ± 0.00029 |
| AGAGATTA | -0.211 ± 0.006 |
| ACCCGACG | 0.146 ± 0.078 |
| CATAGGAG | -0.118 ± 0.044 |
| ACTAACCA | 0.0896 ± 0.03 |

| Sequence | PBM E-score of 8-mer |
| --- | --- |
| GCGCCTAA | 0.184 ± 0.0058 |
| CACCGAAA | -0.171 ± 0.028 |
| CTCACAGC | 0.276 ± 0.0082 |
| ACCAATTG | -0.198 ± 0.016 |
| ATCTGCGG | -0.169 ± 0.013 |
| AAATCCTA | -0.335 ± 0.053 |
| AGAACCGG | -0.158 ± 0.029 |
| ACGCCTCC | 0.298 ± 0.015 |
| ATCCCCAG | -0.165 ± 0.066 |
| AGGGGGAG | -0.292 ± 0.052 |
| AGCCGTTG | -0.0395 ± 0.08 |
| ACTGAAGA | -0.076 ± 0.068 |
| ATCTGAAT | -0.0553 ± 0.039 |
| CCCGGCGC | 0.0165 ± 0.028 |
| CCGTTGCC | 0.0616 ± 0.11 |
| GGCTGTCA | 0.172 ± 0.051 |
| ACAGGGAG | -0.0772 ± 0.034 |
| CCGAACTC | -0.0845 ± 0.065 |
| AGTGCAGG | -0.141 ± 0.013 |
| AGATACCA | -0.181 ± 0.026 |
| AGCGGAAA | 0.00331 ± 0.047 |
| ACTCTCAT | -0.0274 ± 0.081 |
| CCATGTAA | -0.0586 ± 0.041 |
| TAAGGCAA | -0.0556 ± 0.081 |
| ATACCTTA | 0.1245 ± 0.00057 |

| Sequence | PBM E-score of 8-mer |
| --- | --- |
| TCAGGCCA | -0.18 ± 0.024 |
| AGTGTTAG | 0.3895 ± 0.00056 |
| AGTCATTG | -0.0974 ± 0.017 |
| CCACGGCA | -0.0154 ± 0.051 |
| CTCCAGGC | -0.243 ± 0.015 |
| CTTGCGGC | -0.0404 ± 0.011 |
| AATCCCGG | -0.1875 ± 0.00026 |
| GGCAGCAA | -0.00479 ± 0.086 |
| ACACCCTC | 0.402 ± 0.016 |
| ATGCGACA | 0.285 ± 0.0073 |
| GGCCGGCC | -0.0942 ± 0.044 |
| GCGAACGA | 0.283 ± 0.035 |
| CTTCTGCA | 0.00227 ± 0.035 |
| ACAATTTA | 0.00098 ± 0.082 |
| AACGCACG | 0.198 ± 0.073 |
| GAATCTGA | -0.0639 ± 0.06 |
| TCACACAA | 0.435 ± 0.0069 |
| AAGTTTGA | -0.0385 ± 0.021 |
| CACGAGCC | 0.161 ± 0.064 |
| ACGTCCGA | -0.188 ± 0.025 |
| AGTCTTAC | -0.143 ± 0.023 |
| AGCTTGCA | 0.00328 ± 0.058 |
| AAGATGTC | 0.0818 ± 0.083 |
| AATCGTGT | 0.18 ± 0.022 |
| CTTTCCAA | -0.339 ± 0.0049 |

| Sequence | PBM E-score of 8-mer |
| --- | --- |
| AAGCACAT | 0.0379 ± 0.027 |
| AACTCGGA | -0.136 ± 0.053 |
| AGACGTCA | -0.142 ± 0.046 |
| CATGGTGG | 0.129 ± 0.037 |
| CGTATTCC | -0.184 ± 0.12 |
| GCAGACCC | -0.0839 ± 0.024 |
| CGGCAGCC | -0.00839 ± 0.048 |
| AATCTTAC | -0.173 ± 0.073 |
| AGTCCATA | -0.295 ± 0.063 |
| GATCCGAC | -0.046 ± 0.0029 |
| ACTCGGCT | -0.119 ± 0.011 |
| ATCCACCG | -0.256 ± 0.034 |
| CCCTTGAA | -0.329 ± 0.043 |
| ACCGCTAT | 0.039 ± 0.053 |
| TAAGGAGA | -0.251 ± 0.02 |
| ATTTGTGC | -0.113 ± 0.04 |
| CCACCTGG | 0.186 ± 0.029 |
| ATGTTTCG | -0.12 ± 0.029 |
| CGTGGTAA | 0.113 ± 0.033 |
| GCAATGCA | -0.052 ± 0.022 |
| AGAGCCTG | -0.165 ± 0.021 |
| ACTGGTTG | 0.0108 ± 0.018 |
